# Where “and” joins values, the source holds several entries; their conditions need not be identical. Identical values can stand only once. Over roughly 2,900 compounds, “NF-kB SEAP reporter activity, fold change vs agonist alone” has its median near 0.99; the highest 2% begin near 2.6. Some of the results follow.
# Experiments:
# [1] = test system: RAW-Dual; assay: NF-kB SEAP reporter activity, fold change vs agonist alone; cytotoxicity flag (confluency mask): not cytotoxic; higher = enhanced NF-kB activity
# Summary of the method: (§1)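 After 50 nL of library stock was delivered by pin tool to RAW-Dual macrophages (50,000 cells/well, DMEM, 384-well plates), a PRR agonist was added 1 h later and the plates were kept at 37 °C, 5% CO2. Twenty hours later, IRF was read from supernatant by QuantiLuc luminescence and NF-κB by QuantiBlue absorbance at 620 nm. Reporter activity is stated as fold change over agonist-alone wells. Wells with IncuCyte confluency under 70% of agonist controls in both mask sets were counted as cytotoxic.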
# [2] = test system: RAW-Dual; assay: NF-kB SEAP reporter activity, fold change vs agonist alone; higher = enhanced NF-kB activity; details: library stock concentration (final ~1000-fold dilution): 10 mM, cytotoxicity flag (confluency mask): not cytotoxic
# Summary of the method: as §1
# [3] = agonist: ODN 1826 (TLR9) 0.5 ug/mL
# [4] = agonist: Pam2CSK4 (TLR2/6) 0.1 ug/mL
# [5] = agonist: Pam3CSK4 (TLR2/1) 0.1 ug/mL
structure (smiles),measurement,setting,value
O=C(Nc1ccc2c(O)cc(S(=O)(=O)O)cc2c1)Nc1ccc2c(O)cc(S(=O)(=O)O)cc2c1 (library stock concentration (final ~1000-fold dilution): 10 mM),NF-kB SEAP reporter activity,[1]; agonist: LPS (TLR4) 0.1 ug/mL,1.1 and 1.07
same,NF-kB SEAP reporter activity,[1]; [3],1.24 and 1.16
same,NF-kB SEAP reporter activity,[1]; [4],0.99 and 1.2
same,NF-kB SEAP reporter activity,[1]; [5],0.807 and 0.482
O=C(Nc1ccc2c(O)cc(S(=O)(=O)O)cc2c1)Nc1ccc2c(O)cc(S(=O)(=O)O)cc2c1,NF-kB SEAP reporter activity,[2]; agonist: Imiquimod (TLR7) […],0.88
Cn1cnc(N)c2ncnc1-2 (library stock concentration (final ~1000-fold dilution): 10 mM),NF-kB SEAP reporter activity,[1]; agonist: LPS (TLR4) 0.1 ug/mL,1.02
same,NF-kB SEAP reporter activity,[1]; [3],1.03
same,NF-kB SEAP reporter activity,[1]; [4],0.975
same,NF-kB SEAP reporter activity,[1]; [5],1.12
Cn1cnc(N)c2ncnc1-2,NF-kB SEAP reporter activity,[2]; agonist: Imiquimod (TLR7) […],0.984
same,NF-kB SEAP reporter activity,[2]; agonist: MPLA (TLR4) […],1.03
O=C(O)c1cc(O)c(O)c(O)c1 (library stock concentration (final ~1000-fold dilution): 10 mM),NF-kB SEAP reporter activity,[1]; agonist: LPS (TLR4) 0.1 ug/mL,0.717 and 0.491
same,NF-kB SEAP reporter activity,[1]; [3],0.74 and 0.383
same,NF-kB SEAP reporter activity,[1]; [4],0.873 and 0.77
same,NF-kB SEAP reporter activity,[1]; [5],0.346 and 0.311
CC1OC(OC2C(O)CC(OC3C(O)CC(OC4CCC5(C)C(CCC6C5CC(O)C5(C)C(C7=CC(=O)OC7)CCC65O)C4)OC3C)OC2C)CC(O)C1O (stereo unspecified) (library stock concentration (final ~1000-fold dilution): 10 mM),NF-kB SEAP reporter activity,[1]; agonist: LPS (TLR4) 0.1 ug/mL,1.25
same,NF-kB SEAP reporter activity,[1]; [3],0.941
same,NF-kB SEAP reporter activity,[1]; [4],1.19
same,NF-kB SEAP reporter activity,[1]; [5],1.2
CC1OC(OC2C(O)CC(OC3C(O)CC(OC4CCC5(C)C(CCC6C5CC(O)C5(C)C(C7=CC(=O)OC7)CCC65O)C4)OC3C)OC2C)CC(O)C1O (stereo unspecified),NF-kB SEAP reporter activity,[2]; agonist: Imiquimod (TLR7) […],1.08
same,NF-kB SEAP reporter activity,[2]; agonist: MPLA (TLR4) […],1.01
COCCc1ccc(OCC(O)CNC(C)C)cc1.COCCc1ccc(OCC(O)CNC(C)C)cc1.O=C(O)C(O)C(O)C(=O)O (stereo unspecified) (library stock concentration (final ~1000-fold dilution): 10 mM),NF-kB SEAP reporter activity,[1]; agonist: LPS (TLR4) 0.1 ug/mL,1.01
same,NF-kB SEAP reporter activity,[1]; [3],0.842
same,NF-kB SEAP reporter activity,[1]; [4],1
same,NF-kB SEAP reporter activity,[1]; [5],1.06
COCCc1ccc(OCC(O)CNC(C)C)cc1.COCCc1ccc(OCC(O)CNC(C)C)cc1.O=C(O)C(O)C(O)C(=O)O (stereo unspecified),NF-kB SEAP reporter activity,[2]; agonist: Imiquimod (TLR7) […],0.781
same,NF-kB SEAP reporter activity,[2]; agonist: MPLA (TLR4) […],0.831
Cc1c(C)c2c(c(C)c1O)CC[C@@](C)(CCC[C@H](C)CCC[C@H](C)CCCC(C)C)O2 (library stock concentration (final ~1000-fold dilution): 10 mM),NF-kB SEAP reporter activity,[1]; agonist: LPS (TLR4) 0.1 ug/mL,0.915
same,NF-kB SEAP reporter activity,[1]; [3],0.932
same,NF-kB SEAP reporter activity,[1]; [4],1.1
same,NF-kB SEAP reporter activity,[1]; [5],1.43
Cc1c(C)c2c(c(C)c1O)CC[C@@](C)(CCC[C@H](C)CCC[C@H](C)CCCC(C)C)O2,NF-kB SEAP reporter activity,[2]; agonist: Imiquimod (TLR7) […],1.62
same,NF-kB SEAP reporter activity,[2]; agonist: MPLA (TLR4) […],1.64
COc1cc2c(cc1OC)CN(CCc1ccc(NC(=O)c3cccc4c(=O)c5cccc(OC)c5[nH]c34)cc1)CC2 (library stock concentration (final ~1000-fold dilution): 10 mM),NF-kB SEAP reporter activity,[1]; agonist: LPS (TLR4) 0.1 ug/mL,1.25
same,NF-kB SEAP reporter activity,[1]; [3],0.256
same,NF-kB SEAP reporter activity,[1]; [4],1.16
same,NF-kB SEAP reporter activity,[1]; [5],0.826
COc1cc2c(cc1OC)CN(CCc1ccc(NC(=O)c3cccc4c(=O)c5cccc(OC)c5[nH]c34)cc1)CC2,NF-kB SEAP reporter activity,[2]; agonist: Imiquimod (TLR7) […],0.954
same,NF-kB SEAP reporter activity,[2]; agonist: MPLA (TLR4) […],1.02
CC(C)(O)CNc1ncc(-c2ccnc(Nc3ccncc3)n2)c(CC2CC2)n1 (library stock concentration (final ~1000-fold dilution): 10 mM),NF-kB SEAP reporter activity,[1]; agonist: LPS (TLR4) 0.1 ug/mL,4.13
same,NF-kB SEAP reporter activity,[1]; [3],0.366
same,NF-kB SEAP reporter activity,[1]; [4],0.814
same,NF-kB SEAP reporter activity,[1]; [5],1.66
CC(C)(O)CNc1ncc(-c2ccnc(Nc3ccncc3)n2)c(CC2CC2)n1,NF-kB SEAP reporter activity,[2]; agonist: Imiquimod (TLR7) […],0.914
same,NF-kB SEAP reporter activity,[2]; agonist: MPLA (TLR4) […],2.18
C=C(C)C1CC=C(C)CC1 (stereo unspecified) (library stock concentration (final ~1000-fold dilution): 10 mM),NF-kB SEAP reporter activity,[1]; agonist: LPS (TLR4) 0.1 ug/mL,0.958
same,NF-kB SEAP reporter activity,[1]; [3],1.01
same,NF-kB SEAP reporter activity,[1]; [4],0.859
same,NF-kB SEAP reporter activity,[1]; [5],0.83
C=C(C)C1CC=C(C)CC1 (stereo unspecified),NF-kB SEAP reporter activity,[2]; agonist: Imiquimod (TLR7) […],0.834
same,NF-kB SEAP reporter activity,[2]; agonist: MPLA (TLR4) […],1.05
CC(C)(C)C(O)/C=C/c1ccc2c(c1)OCO2 (stereo unspecified),NF-kB SEAP reporter activity,[2]; agonist: MPLA (TLR4) […],1.25
CC(C)(C)C(O)/C=C/c1ccc2c(c1)OCO2 (stereo unspecified) (library stock concentration (final ~1000-fold dilution): 10 mM),NF-kB SEAP reporter activity,[1]; agonist: LPS (TLR4) 0.1 ug/mL,1.13
same,NF-kB SEAP reporter activity,[1]; [3],1.05
same,NF-kB SEAP reporter activity,[1]; [4],1.05
same,NF-kB SEAP reporter activity,[1]; [5],1.33
Cc1cc(N2CCOCC2)cc2[nH]c(-c3c(NCC(O)c4cccc(Cl)c4)cc[nH]c3=O)nc12 (stereo unspecified) (library stock concentration (final ~1000-fold dilution): 10 mM),NF-kB SEAP reporter activity,[1]; [3],3.16
CC12CC3(O)OC(O1)C1(COC(=O)c4ccccc4)C3CC21OC1OC(COC(=O)c2ccccc2)C(O)C(O)C1O (stereo unspecified),NF-kB SEAP reporter activity,[2]; agonist: Imiquimod (TLR7) […],0.925
same,NF-kB SEAP reporter activity,[2]; agonist: MPLA (TLR4) […],0.987
CC12CC3(O)OC(O1)C1(COC(=O)c4ccccc4)C3CC21OC1OC(COC(=O)c2ccccc2)C(O)C(O)C1O (stereo unspecified) (library stock concentration (final ~1000-fold dilution): 10 mM),NF-kB SEAP reporter activity,[1]; agonist: LPS (TLR4) 0.1 ug/mL,0.995
same,NF-kB SEAP reporter activity,[1]; [3],0.926
same,NF-kB SEAP reporter activity,[1]; [4],1.05
same,NF-kB SEAP reporter activity,[1]; [5],1.21
NC(=O)NO,NF-kB SEAP reporter activity,[2]; agonist: Imiquimod (TLR7) […],1.07
same,NF-kB SEAP reporter activity,[2]; agonist: MPLA (TLR4) […],1.03
NC(=O)NO (library stock concentration (final ~1000-fold dilution): 10 mM),NF-kB SEAP reporter activity,[1]; agonist: LPS (TLR4) 0.1 ug/mL,1.09
same,NF-kB SEAP reporter activity,[1]; [3],1.15
same,NF-kB SEAP reporter activity,[1]; [4],1
same,NF-kB SEAP reporter activity,[1]; [5],1.04
Cl.Cl.O=C1c2c(O)ccc(O)c2C(=O)c2c(NCCNCCO)ccc(NCCNCCO)c21 (library stock concentration (final ~1000-fold dilution): 10 mM),NF-kB SEAP reporter activity,[1]; agonist: LPS (TLR4) 0.1 ug/mL,0.336
same,NF-kB SEAP reporter activity,[1]; [3],0.963
same,NF-kB SEAP reporter activity,[1]; [4],0.174
same,NF-kB SEAP reporter activity,[1]; [5],0.678
Cl.Cl.O=C1c2c(O)ccc(O)c2C(=O)c2c(NCCNCCO)ccc(NCCNCCO)c21,NF-kB SEAP reporter activity,[2]; agonist: Imiquimod (TLR7) […],0.906
same,NF-kB SEAP reporter activity,[2]; agonist: MPLA (TLR4) […],0.925
O=C(Nc1ccccc1C(=O)O)c1cc(S(=O)(=O)c2ccccc2)ccc1Cl (library stock concentration (final ~1000-fold dilution): 10 mM),NF-kB SEAP reporter activity,[1]; agonist: LPS (TLR4) 0.1 ug/mL,1.19
same,NF-kB SEAP reporter activity,[1]; [3],0.999
same,NF-kB SEAP reporter activity,[1]; [4],1.09
same,NF-kB SEAP reporter activity,[1]; [5],1.13
O=C(Nc1ccccc1C(=O)O)c1cc(S(=O)(=O)c2ccccc2)ccc1Cl,NF-kB SEAP reporter activity,[2]; agonist: Imiquimod (TLR7) […],0.883
same,NF-kB SEAP reporter activity,[2]; agonist: MPLA (TLR4) […],1.01

# From the supplement of paper PMC10037445
